According to PubChem BioAssay AID485281 (National Center for Advancing Translational Sciences (NCATS), 2010):
Screen size: about 350,000 compounds; about 260 (0.074%) were called active. Inconclusive results, whose numbers are uncertain, are shown with a selection of clear calls. Calls follow the shape of the dose curve; as a rule, active = well fitted inhibition curve with a large enough effect; inconclusive = small, poorly fitted or top-dose-only effect; inactive = no such curve, though single readings can be large or run the other way. A potency beside an inconclusive call is a rough fit, not a confirmed value.

These compounds were tested against Ferritin light chain (Equus caballus) (UniProt P02791) (assay: qHTS Assay for Identification of Novel General Anesthetics). Details: apoferritin/1-aminoanthracene competitive binding, fluorescence; activity change, negative = displacement: at 77.5 µM (top of the series).
In short: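 Steps: apoferritin (10 uM) was premixed with half-saturated 1-AMA in PBS, compounds were pin-transferred, plates stood 10 min at room temperature, fluorescence was read at 380/535 nm, and curves were fitted with a Hill equation.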
% is scaled to controls: 0 for no effect and ±100 for the full control effect; tags tell the direction and shape of the fitted curve.
Also: nearly all actives have a fitted effect of over 20% in size.

Chain of UniProt P02791 (P02791 whole entry, looked up): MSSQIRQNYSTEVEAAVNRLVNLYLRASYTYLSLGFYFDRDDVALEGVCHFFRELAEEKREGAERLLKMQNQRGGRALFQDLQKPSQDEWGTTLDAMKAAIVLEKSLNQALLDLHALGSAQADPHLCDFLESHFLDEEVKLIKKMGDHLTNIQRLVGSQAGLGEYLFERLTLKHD

SMILES | activity change, negative = displacement | Potency
O=C(Nc1cccc(NC(=O)c2ccc(Cl)cc2Cl)c1)c1cccnc1 | inactive: -6.23% | –
COc1ccc(/C(N)=N/OC(=O)C2CCCCC2)cc1 | inactive: -22.8% | –
COCCNC(=O)c1ccc2c(c1)N(Cc1cc(C)ccc1C)C(=O)c1ccccc1S2(=O)=O | inactive: -17.7% | –
O=C(CC1SCCNC1=O)Nc1ccc(F)c(Cl)c1 (centres undefined) | – | inconclusive: 39.8 µM [inhibitor, partial curve]
CCCCC(=O)NC(c1ccc(OC)c(OC)c1)c1c(O)ccc2ccccc12 (centres undefined) | inactive: -5.48% | –
COc1ccc(N(CCCN2C(=O)c3cccc4cccc(c34)C2=O)C(=O)c2ccncc2)cc1 | – | inconclusive: 31.6 µM [inhibitor, partial curve]
CN1c2ccccc2-c2nc3ccccc3n2C1c1ccccn1 (centres undefined) | inactive: 109% | –
COC(=O)C(C)Nc1cccc(Br)c1 (centres undefined) | – | inconclusive: 28.2 µM [inhibitor, partial curve, poor fit]
O=C(Nc1ccccc1Cl)c1cccc(NS(=O)(=O)c2ccccc2)c1 | – | inconclusive: 22.4 µM [inhibitor, partial curve]
Cc1cccc(NC(=O)c2cc(-c3ccc4c(c3)OCCO4)on2)c1 | inactive: 59.1% | –
Cc1cc(C(=O)COc2ncnc3sccc23)c(C)n1C1CC1 | inactive: -11.9% | –
Cc1cc(C(=O)OCC(=O)N2CC(C)CC(C)C2)c(C)o1 (centres undefined) | – | inconclusive: 35.5 µM [inhibitor, partial curve]
CCOC(=O)N1CCC(N2C(=O)c3ccccc3C2Nc2cc(OC)c(OC)c(OC)c2)CC1 (centres undefined) | inactive: -10.2% | –
CCOC(=O)c1c(NC(=O)CSc2nnc(-c3cccc(C)c3)n2CC)sc(C(C)=O)c1C | – | inconclusive: 12.6 µM [inhibitor, partial curve]
O=C(N/N=C/c1ccccn1)c1ccc(Br)cc1 | inactive: -1.59% | –
CCOCCCNC(=O)c1cc2c(-c3ccc(Cl)cc3)nn(C)c2s1 | inactive: -2.91% | –
CN(C)S(=O)(=O)c1ccc(Nc2nc(C3CC3)nc3c2nnn3Cc2ccccc2Cl)cc1 | inactive: -1.44% | –
Cc1ccc(C(=O)C(=S)N2CCOCC2)cc1 | – | inconclusive: 35.5 µM [inhibitor, partial curve]
Cc1ccc(N(C(=O)c2nsc(Cl)c2Cl)C(C(=O)NC2CCCC2)c2ccc(O)cc2)cc1C (centres undefined) | – | inconclusive: 10 µM [inhibitor, full curve, poor fit]
COc1ccc(/C=C(\C#N)c2nc3ccccc3[nH]2)cc1O | – | inconclusive: 35.5 µM [inhibitor, single point]
COc1ccc(S(=O)(=O)N2CCOC23CCN(C(=O)c2ccccc2Br)CC3)cc1 | inactive: -3.27% | –
O=C(CSc1nc2nc(-c3cccs3)cc(C(F)(F)F)c2c(=O)[nH]1)Nc1ccc(F)c(F)c1 | – | inconclusive: 39.8 µM [inhibitor, single point]
COC(=O)c1ccc(Cn2c(SCc3ccccc3F)nc3ccncc32)cc1 | – | inconclusive: 28.2 µM [inhibitor, single point]

SMILES | activity change, negative = displacement | Potency
Clc1ccc(SCc2nc3ccccc3[nH]2)cc1 | – | inconclusive: 28.2 µM [inhibitor, partial curve]
CC1C(=O)Nc2ccc(S(=O)(=O)NCc3ccc(N(C)C)cc3)cc2NC1=O (centres undefined) | – | inconclusive: 25.1 µM [inhibitor, partial curve]
Cc1ccc(CNC(=O)C2C3C=CC(C3)C2C(=O)O)cc1 (centres undefined) | – | inconclusive: 39.8 µM [inhibitor, single point]
CCCCOC(=O)n1c(=S)oc2cc(Cl)ccc21 | – | inconclusive: 22.4 µM [inhibitor, partial curve]
O=C(Oc1ccc(Cl)c2cccnc12)c1ccco1 | – | inconclusive: 31.6 µM [inhibitor, single point]
CCC1Oc2ccc(C)cc2N(CC(=O)NCC2COc3ccccc3O2)C1=O (centres undefined) | – | inconclusive: 50.1 µM [inhibitor, single point]
COc1cccc(C(=O)c2cn(CC(=O)Nc3cccc(C(F)(F)F)c3)c3nc(C)ccc3c2=O)c1 | – | inconclusive: 6.31 µM [inhibitor, full curve]
CCN(CC)S(=O)(=O)c1ccc2c(c1)nc(CN(C)C(=O)Nc1cccc(Cl)c1)n2C | – | inconclusive: 2.51 µM [inhibitor, partial curve, poor fit]
C=CCN(CC=C)C(=O)CN1C(=O)NC(C)(c2ccc3cc(OC)ccc3c2)C1=O (centres undefined) | – | inconclusive: 50.1 µM [inhibitor, single point]
CCCN(CCC)C(=O)CN1C(=O)CSc2ccc(S(=O)(=O)N3CCC(C)CC3)cc21 | – | inconclusive: 35.5 µM [inhibitor, partial curve]
CC(=O)N1CCc2cc(S(=O)(=O)NC(CC(C)C)C(=O)NCCc3ccc(C)cc3)ccc21 (centres undefined) | – | inconclusive: 39.8 µM [inhibitor, single point]
CC12CCC(C(=O)N3CCC(Cc4ccccc4)CC3)(C(=O)C1=O)C2(C)C (centres undefined) | inactive: -20.3% | –
COc1ccc(/C(C)=N/NC(=O)CNC(=O)/C=C/c2ccccc2OC)cc1 | – | inconclusive: 28.2 µM [inhibitor, single point]
Cc1ccc(NCC(=O)N/N=C/c2ccncc2)cc1 | – | inconclusive: 44.7 µM [inhibitor, single point]
N/C(=N\OC(=O)c1ccccc1Cl)c1ccccn1 | – | inconclusive: 31.6 µM [inhibitor, single point]
CCN1CCc2nc3sc(C(=O)c4ccccc4)c(N)c3cc2C1 | – | inconclusive: 17.8 µM [inhibitor, partial curve]
COc1cc(OC)c(NC(=O)N2CCOCC2)cc1Cl | inactive: -2.17% | –
Cc1cc(NC(=O)C2CCCCC2)ncc1NC(=O)c1ccccn1 | – | inconclusive: 31.6 µM [inhibitor, partial curve]
CCC(C(=O)NCc1ccccc1OC)n1nc(C)n2c(cc3sccc32)c1=O (centres undefined) | inactive: -13.3% | –
CCOC(=O)c1c(S(=O)(=O)NCC(=O)Nc2ccc(C)c(Cl)c2)c(C)n(C)c1C | – | inconclusive: 56.2 µM [inhibitor, single point]
CCCCOC(=O)c1ccc(NC(C)=O)cc1 | – | inconclusive: 25.1 µM [inhibitor, partial curve]
CCCn1nc(NC(=O)C(C)(C)C)c2cc3cc(OC)ccc3nc21 | inactive: 57.5% | –
COc1ccc(NC(=O)c2cc(Br)c(Br)s2)cn1 | inactive: -23.1% | –

SMILES | activity change, negative = displacement | Potency
O=[N+]([O-])c1cccc2ccc(/C=C/c3ccc(F)cc3)nc12 | – | inconclusive: 17.8 µM [inhibitor, partial curve]
Cc1ccc(NCc2nnc(SCC(=O)c3ccccc3)n2Cc2ccco2)c(C)c1 | – | inconclusive: 22.4 µM [inhibitor, partial curve]
O=S(=O)(NCc1ccccc1)c1ccc(F)cc1Br | – | inconclusive: 31.6 µM [inhibitor, single point]
Cc1cccc(N(C)S(=O)(=O)c2cc3c(cc2C)n(C)c(=O)c(=O)n3C)c1 | – | inconclusive: 22.4 µM [inhibitor, partial curve]
O/N=C1\CCCC\C1=C/c1ccccc1 | – | inconclusive: 31.6 µM [inhibitor, partial curve]
O=C(NCc1ccc2c(c1)OCO2)Nc1ccc(F)cc1 | inactive: -4.17% | –
CCOc1cc(/C=N/NC(=O)COc2cccc(C)c2)ccc1OC(=O)c1cccs1 | – | inconclusive: 4.47 µM [inhibitor, full curve, poor fit]
O=C(CCc1nnc(CCCCc2ccccc2)o1)NCc1cc(F)ccc1F | – | inconclusive: 31.6 µM [inhibitor, partial curve]
CCCC(C)C(=O)Nc1nc(C)c(-c2csc(Nc3cc(Cl)ccc3C)n2)s1 (centres undefined) | – | inconclusive: 28.2 µM [inhibitor, partial curve]
CCOc1ccc(C2c3[nH]c4ccccc4c3CCN2C(=O)Cc2cccc(OCC)c2OCC)cc1 (centres undefined) | inactive: 89.4% | –
C=CCN1C(=O)[C@]2(c3ccccc31)C1CCCC=C1C(C#N)=C(N)C2(C#N)C#N (some centres undefined) | – | inconclusive: 39.8 µM [inhibitor, partial curve]
COc1ccc(NC(=O)CSc2nc(N)c3cc4c(nc3n2)CCCC4)c(OC)c1 | – | inconclusive: 22.4 µM [inhibitor, partial curve]
CCOC(=O)c1cnc2ccc(C(=O)OC)cc2c1Nc1ccccc1CC | – | inconclusive: 3.16 µM [inhibitor, full curve, poor fit]
CCCC(=O)NC(c1ccco1)c1cc(Cl)c2cccnc2c1O (centres undefined) | inactive: -5.72% | –
O=C1CC(c2ccccc2)CC(O)=C1C=NCc1ccccc1Cl (centres undefined) | – | inconclusive: 31.6 µM [inhibitor, partial curve]
O=C(COC(=O)c1ccc(S(=O)(=O)NCc2ccco2)cc1)Nc1ccc(OC(F)F)cc1 | – | inconclusive: 28.2 µM [inhibitor, partial curve]
COc1cccc(S(=O)(=O)Nc2ccc(C(=O)N3CCCCCC3)cc2)c1 | – | inconclusive: 28.2 µM [inhibitor, partial curve]
O=c1cc(-c2ccccc2Cl)oc2cccc(O)c12 | – | inconclusive: 15.8 µM [inhibitor, partial curve]
Cc1ccc(-c2cc(C(=O)NCc3cnn(C)c3)c3cc(Br)ccc3n2)cc1 | – | inconclusive: 14.1 µM [inhibitor, partial curve]
O=C1N=c2ccccc2=C1c1sc(Nc2ccc(O)cc2)nc1O | – | inconclusive: 15.8 µM [inhibitor, partial curve]
O=C(Nc1ccc(Cc2ccncc2)cc1)c1cc([N+](=O)[O-])ccc1N1CCOCC1 | – | inconclusive: 31.6 µM [inhibitor, single point]
O=C(CC1SC(N2CCCCC2)=NC1=O)Nc1cccc(C(F)(F)F)c1 (centres undefined) | inactive: -10.9% | –
Cc1cc(NC(=S)NC(=O)C2CC2)ccc1Br | – | inconclusive: 31.6 µM [inhibitor, single point]
